Experimental findings from article PMC12820563 are described below.

The list shows a part of the results. The list includes weakly bound sequences.

In this test the target is T1, MBP-FoxP3dN (UniProt Q99JB6).
T1 sequence: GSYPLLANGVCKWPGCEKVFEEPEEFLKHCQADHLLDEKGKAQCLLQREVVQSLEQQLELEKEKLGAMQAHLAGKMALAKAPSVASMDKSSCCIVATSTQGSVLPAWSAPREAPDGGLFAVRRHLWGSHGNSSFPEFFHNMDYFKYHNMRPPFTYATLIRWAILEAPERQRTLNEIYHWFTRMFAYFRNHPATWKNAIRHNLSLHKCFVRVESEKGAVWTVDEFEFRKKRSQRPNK
Kind of test: PD-seq (MBP pull-down with sequencing). The conditions noted are these: 20 mM Tris-HCl pH 7.5, 100 mM NaCl, 1.5 mM MgCl2, 0.4 uM protein, 0.1 uM dsDNA library, 30 min, room temperature, amylose pull-down; high values mean tight binding; double strand, one strand shown.
Take “GATGATTGTTCTCCCAGCTGATGAATTCATGCTTTCGAGTAAACAAATTTTCCTAATCTTTCTGTTCAAGCGCCATCTAC”: the binding signal (RPM ratio (pull-down/input)) worked out at 0.987.
Take “GATGATTGTTCTCCCAGCTGATGAATTAGGTGCTTCGAGTAAACAAATTTTCCTAATCTTTCTGTTCAAGCGCCATCTAC”: the binding signal (RPM ratio (pull-down/input)) worked out at 0.806.
In the case of “GATGATTGTTCTCCCAGCTGATGAATTACCTGCATCGAGTAAACAAATTTTCCTAATCTTTCTGTTCAAGCGCCATCTAC”, the binding signal (RPM ratio (pull-down/input)) stood at 0.918.
Turning to “GATGATTGTTCTCCCAGCTGATGAATTCGTAGAGTCGAGTAAACAAATTTTCCTAATCTTTCTGTTCAAGCGCCATCTAC”, the binding signal (RPM ratio (pull-down/input)) worked out at 0.323.
The figure for “GATGATTGTTCTCCCAGCTGATGAATTCACAGGTTCGAGTAAACAAATTTTCCTAATCTTTCTGTTCAAGCGCCATCTAC” is 0.281.
Take “GATGATTGTTCTCCCAGCTGATGAATTGTCGAGGTCGAGTAAACAAATTTTCCTAATCTTTCTGTTCAAGCGCCATCTAC”: the binding signal (RPM ratio (pull-down/input)) stood at 0.266.
“GATGATTGTTCTCCCAGCTGATGAATTGCTCGATTCGAGTAAACAAATTTTCCTAATCTTTCTGTTCAAGCGCCATCTAC”: the binding signal (RPM ratio (pull-down/input)) came out at 0.514.
Regarding “GATGATTGTTCTCCCAGCTGATGAATTTCATGATTCGAGTAAACAAATTTTCCTAATCTTTCTGTTCAAGCGCCATCTAC”, the binding signal (RPM ratio (pull-down/input)) is 0.692.
On to “GATGATTGTTCTCCCAGCTGATGAATTAGGCGGATCGAGTAAACAAATTTTCCTAATCTTTCTGTTCAAGCGCCATCTAC”, for which the binding signal (RPM ratio (pull-down/input)) came out at 0.513.
“GATGATTGTTCTCCCAGCTGATGAATTGGTGCTTTCGAGTAAACAAATTTTCCTAATCTTTCTGTTCAAGCGCCATCTAC”: the binding signal (RPM ratio (pull-down/input)) came out at 1.06.
Take “GATGATTGTTCTCCCAGCTGATGAATTCTAGACATCGAGTAAACAAATTTTCCTAATCTTTCTGTTCAAGCGCCATCTAC”: the binding signal (RPM ratio (pull-down/input)) turned out to be 0.391.
As to “GATGATTGTTCTCCCAGCTGATGAATTGGGTTTGTCGAGTAAACAAATTTTCCTAATCTTTCTGTTCAAGCGCCATCTAC”, the binding signal (RPM ratio (pull-down/input)) came to 2.38.
Then “GATGATTGTTCTCCCAGCTGATGAATTAAATCCTTCGAGTAAACAAATTTTCCTAATCTTTCTGTTCAAGCGCCATCTAC”, with 0.25; and “GATGATTGTTCTCCCAGCTGATGAATTGCGATGTTCGAGTAAACAAATTTTCCTAATCTTTCTGTTCAAGCGCCATCTAC”, with 2.02.
As to “GATGATTGTTCTCCCAGCTGATGAATTAGATAGTTCGAGTAAACAAATTTTCCTAATCTTTCTGTTCAAGCGCCATCTAC”, the binding signal (RPM ratio (pull-down/input)) stood at 0.959.
Consider “GATGATTGTTCTCCCAGCTGATGAATTAGCCAGATCGAGTAAACAAATTTTCCTAATCTTTCTGTTCAAGCGCCATCTAC”, for which the binding signal (RPM ratio (pull-down/input)) stood at 0.176.
With “GATGATTGTTCTCCCAGCTGATGAATTCTGCTTGTCGAGTAAACAAATTTTCCTAATCTTTCTGTTCAAGCGCCATCTAC”, the binding signal (RPM ratio (pull-down/input)) worked out at 4.57.
Turning to “GATGATTGTTCTCCCAGCTGATGAATTGCGTACCTCGAGTAAACAAATTTTCCTAATCTTTCTGTTCAAGCGCCATCTAC”, the binding signal (RPM ratio (pull-down/input)) was 1.42.
Regarding “GATGATTGTTCTCCCAGCTGATGAATTCTGCAGCTCGAGTAAACAAATTTTCCTAATCTTTCTGTTCAAGCGCCATCTAC”, the binding signal (RPM ratio (pull-down/input)) worked out at 2.66.
“GATGATTGTTCTCCCAGCTGATGAATTTCGTCCCTCGAGTAAACAAATTTTCCTAATCTTTCTGTTCAAGCGCCATCTAC”: the binding signal (RPM ratio (pull-down/input)) came out at 0.799.
On to “GATGATTGTTCTCCCAGCTGATGAATTTCGTTCATCGAGTAAACAAATTTTCCTAATCTTTCTGTTCAAGCGCCATCTAC”, for which the binding signal (RPM ratio (pull-down/input)) was found to be 0.585.
Take “GATGATTGTTCTCCCAGCTGATGAATTCGCGTGGTCGAGTAAACAAATTTTCCTAATCTTTCTGTTCAAGCGCCATCTAC”: the binding signal (RPM ratio (pull-down/input)) is 1.61.
The figure for “GATGATTGTTCTCCCAGCTGATGAATTAAGTCCTTCGAGTAAACAAATTTTCCTAATCTTTCTGTTCAAGCGCCATCTAC” is 0.358; for “GATGATTGTTCTCCCAGCTGATGAATTGAATATTTCGAGTAAACAAATTTTCCTAATCTTTCTGTTCAAGCGCCATCTAC” it is 0.671; for “GATGATTGTTCTCCCAGCTGATGAATTATGTGCATCGAGTAAACAAATTTTCCTAATCTTTCTGTTCAAGCGCCATCTAC” it is 2.21.
For “GATGATTGTTCTCCCAGCTGATGAATTAAATTTGTCGAGTAAACAAATTTTCCTAATCTTTCTGTTCAAGCGCCATCTAC”, the binding signal (RPM ratio (pull-down/input)) was 1.61.
Then “GATGATTGTTCTCCCAGCTGATGAATTGACCCGTTCGAGTAAACAAATTTTCCTAATCTTTCTGTTCAAGCGCCATCTAC”, with 0.292; and “GATGATTGTTCTCCCAGCTGATGAATTAGGGATGTCGAGTAAACAAATTTTCCTAATCTTTCTGTTCAAGCGCCATCTAC”, with 0.518.
For the sequence “GATGATTGTTCTCCCAGCTGATGAATTCAGGGGATCGAGTAAACAAATTTTCCTAATCTTTCTGTTCAAGCGCCATCTAC”, the binding signal (RPM ratio (pull-down/input)) is 0.302.
As to “GATGATTGTTCTCCCAGCTGATGAATTGTTAACGTCGAGTAAACAAATTTTCCTAATCTTTCTGTTCAAGCGCCATCTAC”, the binding signal (RPM ratio (pull-down/input)) was found to be 0.643.
“GATGATTGTTCTCCCAGCTGATGAATTGTCCCAGTCGAGTAAACAAATTTTCCTAATCTTTCTGTTCAAGCGCCATCTAC”: the binding signal (RPM ratio (pull-down/input)) is 0.266.
Turning to “GATGATTGTTCTCCCAGCTGATGAATTCCCGTATTCGAGTAAACAAATTTTCCTAATCTTTCTGTTCAAGCGCCATCTAC”, the binding signal (RPM ratio (pull-down/input)) was 0.951.
